# Laboratory results reported in the supplement of paper PMC8728848.
# Some of the results follow.
# Experiments:
# Test in all cases: glycan array binding signal (z-score within array); higher = stronger binding
# Details in all cases: glycan notation: IUPAC condensed, linker removed
# [1] = target: Fuc(a1-2)Gal(b1-4)GlcNAc(b1-3)Gal(b1-4)GlcNAc(b1-3)Gal(b1-4)GlcNAc
# Outline: (§1)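 Negative Z-scores can be read as non-binding. The Z-score is calculated within each array and then averaged across arrays of one protein sequence at different concentrations or buffers and across linkers. Arrays, 3228 in all, were curated from the Consortium for Functional Glycomics database and kept only where the protein sequence was available.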
# [2] = target: Fuc(a1-2)Gal(b1-4)GlcNAc(b1-3)GalNAc
# Outline: as §1
# [3] = target: Fuc(a1-2)Gal(b1-4)GlcNAc(b1-3)[Fuc(a1-2)Gal(b1-4)GlcNAc(b1-6)]GalNAc
# Outline: as §1
# [4] = target: Fuc(a1-2)Gal(b1-4)GlcNAc(b1-3)[Fuc(a1-3)[Gal(b1-4)]GlcNAc(b1-6)]Gal(b1-4)Glc
# Outline: as §1
# [5] = target: Fuc(a1-2)Gal(b1-4)GlcNAc(b1-6)GalNAc
# Outline: as §1
# [6] = target: Fuc(a1-2)Gal(b1-4)GlcNAc6S
# Outline: as §1
# [7] = target: Fuc(a1-2)Gal(b1-4)[Fuc(a1-3)]GlcNAc
# Outline: as §1
# [8] = target: Fuc(a1-2)Gal(b1-4)[Fuc(a1-3)]GlcNAc(b1-2)Man(a1-3)[Fuc(a1-2)Gal(b1-4)[Fuc(a1-3)]GlcNAc(b1-2)Man(a1-6)]Man(b1-4)GlcNAc(b1-4)[Fuc(a1-6)]GlcNAc
# Outline: as §1
# [9] = target: Fuc(a1-2)Gal(b1-4)[Fuc(a1-3)]GlcNAc(b1-2)[Fuc(a1-2)Gal(b1-4)[Fuc(a1-3)]GlcNAc(b1-4)]Man(a1-3)[Fuc(a1-2)Gal(b1-4)[Fuc(a1-3)]GlcNAc(b1-2)Man(a1-6)]Man(b1-4)GlcNAc(b1-4)GlcNAc
# Outline: as §1
# [10] = target: Fuc(a1-2)Gal(b1-4)[Fuc(a1-3)]GlcNAc(b1-3)Gal(b1-4)[Fuc(a1-3)]GlcNAc
# Outline: as §1
# [11] = target: Fuc(a1-2)Gal(b1-4)[Fuc(a1-3)]GlcNAc(b1-3)Gal(b1-4)[Fuc(a1-3)]GlcNAc(b1-3)Gal(b1-4)[Fuc(a1-3)]GlcNAc
# Outline: as §1
# [12] = target: Fuc(a1-2)Gal(b1-4)[Fuc(a1-3)]GlcNAc(b1-3)GalNAc
# Outline: as §1
# [13] = target: Fuc(a1-2)Gal(b1-4)[Fuc(a1-3)]GlcNAc(b1-3)[Neu5Ac(a2-6)Gal(b1-4)GlcNAc(b1-6)]Gal(b1-4)Glc
# Outline: as §1
# [14] = target: Fuc(a1-2)Gal3S(b1-4)GlcNAc
# Outline: as §1
# [15] = target: Fuc(a1-2)Gal6S(b1-3)GlcNAc
# Outline: as §1
# [16] = target: Fuc(a1-2)Gal6S(b1-3)GlcNAc6S
# Outline: as §1
# Fuc(a1-2)Gal6S(b1-4)Glc = target: Fuc(a1-2)Gal6S(b1-4)Glc
# Outline: as §1
# [17] = target: Fuc(a1-2)Gal6S(b1-4)Glc6S
# Outline: as §1
# Fuc(a1-2)[Gal(a1-3)]Gal = target: Fuc(a1-2)[Gal(a1-3)]Gal
# Outline: as §1
# [18] = target: Fuc(a1-2)[Gal(a1-3)]Gal(b1-3)GalNAc
# Outline: as §1
# [19] = target: Fuc(a1-2)[Gal(a1-3)]Gal(b1-3)GalNAc(b1-3)Gal(a1-4)Gal(b1-4)Glc
# Outline: as §1
# [20] = target: Fuc(a1-2)[Gal(a1-3)]Gal(b1-3)GlcNAc
# Outline: as §1
# [21] = target: Fuc(a1-2)[Gal(a1-3)]Gal(b1-3)GlcNAc(b1-2)Man(a1-3)[Fuc(a1-2)[Gal(a1-3)]Gal(b1-3)GlcNAc(b1-2)Man(a1-6)]Man(b1-4)GlcNAc(b1-4)GlcNAc
# Outline: as §1
# [22] = target: Fuc(a1-2)[Gal(a1-3)]Gal(b1-3)GlcNAc(b1-2)Man(a1-3)[Fuc(a1-2)[Gal(a1-3)]Gal(b1-3)GlcNAc(b1-2)Man(a1-6)]Man(b1-4)GlcNAc(b1-4)[Fuc(a1-6)]GlcNAc
# Outline: as §1
# [23] = target: Fuc(a1-2)[Gal(a1-3)]Gal(b1-3)GlcNAc(b1-3)GalNAc
# Outline: as §1
# [24] = target: Fuc(a1-2)[Gal(a1-3)]Gal(b1-3)GlcNAc(b1-6)GalNAc
# Outline: as §1
# [25] = target: Fuc(a1-2)[Gal(a1-3)]Gal(b1-4)Glc
# Outline: as §1
# [26] = target: Fuc(a1-2)[Gal(a1-3)]Gal(b1-4)GlcNAc
# Outline: as §1
# [27] = target: Fuc(a1-2)[Gal(a1-3)]Gal(b1-4)GlcNAc(b1-2)Man
# Outline: as §1
# [28] = target: Fuc(a1-2)[Gal(a1-3)]Gal(b1-4)GlcNAc(b1-2)Man(a1-3)[Fuc(a1-2)[Gal(a1-3)]Gal(b1-4)GlcNAc(b1-2)Man(a1-6)]Man(b1-4)GlcNAc(b1-4)GlcNAc
# Outline: as §1
binder,measurement,setting,value
TIM1 (protein) ADGIQSVKVGGEAGPSVTLPCHYSGAVTSMCWNRGSCSLFTCQNGIVWTNGTHVTYRKDTRYKLLGDLSRRDVSLTIENTAVSDSGVYCCRVEHRGWFNDMKITVSLEIVPPHHHHHH,glycan array binding signal (z-score),[1],-0.132
same,glycan array binding signal (z-score),[2],-0.169
same,glycan array binding signal (z-score),[3],-0.134
same,glycan array binding signal (z-score),[4],-0.219
same,glycan array binding signal (z-score),[5],-0.15
same,glycan array binding signal (z-score),[6],-0.102
same,glycan array binding signal (z-score),[7],-0.107
same,glycan array binding signal (z-score),[8],0.121
same,glycan array binding signal (z-score),[9],-0.074
same,glycan array binding signal (z-score),[10],-0.115
same,glycan array binding signal (z-score),[11],-0.198
same,glycan array binding signal (z-score),[12],0.887
same,glycan array binding signal (z-score),[13],-0.276
same,glycan array binding signal (z-score),[14],-0.264
same,glycan array binding signal (z-score),[15],-0.216
same,glycan array binding signal (z-score),[16],1.48
same,glycan array binding signal (z-score),Fuc(a1-2)Gal6S(b1-4)Glc,-0.035
same,glycan array binding signal (z-score),[17],-0.162
same,glycan array binding signal (z-score),Fuc(a1-2)[Gal(a1-3)]Gal,-0.147
same,glycan array binding signal (z-score),[18],-0.248
same,glycan array binding signal (z-score),[19],-0.3
same,glycan array binding signal (z-score),[20],-0.196
same,glycan array binding signal (z-score),[21],-0.219
same,glycan array binding signal (z-score),[22],-0.217
same,glycan array binding signal (z-score),[23],-0.158
same,glycan array binding signal (z-score),[24],-0.148
same,glycan array binding signal (z-score),[25],-0.183
same,glycan array binding signal (z-score),[26],-0.192
same,glycan array binding signal (z-score),[27],-0.225
same,glycan array binding signal (z-score),[28],-0.183
